From article PMC11864811
No constants are given. Whether binding was seen depends on the method and setting. For some of these results: Binding seen in cells or lysates may run through a third protein. Some binding calls cover weakened binding; strength is not graded here.

The chains behind the UniProt entries cited, without tags or fusion partners.
UniProt P39748: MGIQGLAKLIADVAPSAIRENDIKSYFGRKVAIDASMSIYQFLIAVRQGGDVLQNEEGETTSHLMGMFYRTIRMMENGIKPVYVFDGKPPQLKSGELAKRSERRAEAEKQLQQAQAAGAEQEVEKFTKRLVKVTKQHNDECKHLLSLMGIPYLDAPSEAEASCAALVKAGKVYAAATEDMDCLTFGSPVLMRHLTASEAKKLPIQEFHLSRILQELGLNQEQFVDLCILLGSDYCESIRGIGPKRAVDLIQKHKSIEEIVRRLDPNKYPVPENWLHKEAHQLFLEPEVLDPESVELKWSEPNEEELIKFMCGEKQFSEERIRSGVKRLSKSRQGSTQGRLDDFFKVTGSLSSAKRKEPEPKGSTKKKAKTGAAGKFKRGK
UniProt P27695: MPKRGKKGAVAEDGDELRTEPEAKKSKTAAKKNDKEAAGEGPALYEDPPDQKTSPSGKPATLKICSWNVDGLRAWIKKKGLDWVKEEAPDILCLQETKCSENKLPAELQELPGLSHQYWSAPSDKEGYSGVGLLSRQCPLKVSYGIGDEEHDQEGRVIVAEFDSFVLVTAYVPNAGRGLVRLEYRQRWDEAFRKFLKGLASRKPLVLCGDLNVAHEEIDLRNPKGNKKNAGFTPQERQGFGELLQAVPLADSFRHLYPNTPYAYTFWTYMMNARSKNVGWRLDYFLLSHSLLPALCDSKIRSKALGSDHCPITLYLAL
UniProt O15527: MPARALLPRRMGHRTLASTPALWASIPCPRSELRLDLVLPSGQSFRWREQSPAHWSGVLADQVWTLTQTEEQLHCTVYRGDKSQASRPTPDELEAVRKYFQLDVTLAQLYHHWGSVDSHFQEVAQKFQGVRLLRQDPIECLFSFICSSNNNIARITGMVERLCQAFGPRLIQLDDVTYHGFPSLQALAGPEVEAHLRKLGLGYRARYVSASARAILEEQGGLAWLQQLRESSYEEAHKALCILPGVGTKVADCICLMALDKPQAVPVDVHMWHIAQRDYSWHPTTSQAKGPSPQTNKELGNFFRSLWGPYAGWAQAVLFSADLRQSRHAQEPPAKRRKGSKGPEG
UniProt P18858: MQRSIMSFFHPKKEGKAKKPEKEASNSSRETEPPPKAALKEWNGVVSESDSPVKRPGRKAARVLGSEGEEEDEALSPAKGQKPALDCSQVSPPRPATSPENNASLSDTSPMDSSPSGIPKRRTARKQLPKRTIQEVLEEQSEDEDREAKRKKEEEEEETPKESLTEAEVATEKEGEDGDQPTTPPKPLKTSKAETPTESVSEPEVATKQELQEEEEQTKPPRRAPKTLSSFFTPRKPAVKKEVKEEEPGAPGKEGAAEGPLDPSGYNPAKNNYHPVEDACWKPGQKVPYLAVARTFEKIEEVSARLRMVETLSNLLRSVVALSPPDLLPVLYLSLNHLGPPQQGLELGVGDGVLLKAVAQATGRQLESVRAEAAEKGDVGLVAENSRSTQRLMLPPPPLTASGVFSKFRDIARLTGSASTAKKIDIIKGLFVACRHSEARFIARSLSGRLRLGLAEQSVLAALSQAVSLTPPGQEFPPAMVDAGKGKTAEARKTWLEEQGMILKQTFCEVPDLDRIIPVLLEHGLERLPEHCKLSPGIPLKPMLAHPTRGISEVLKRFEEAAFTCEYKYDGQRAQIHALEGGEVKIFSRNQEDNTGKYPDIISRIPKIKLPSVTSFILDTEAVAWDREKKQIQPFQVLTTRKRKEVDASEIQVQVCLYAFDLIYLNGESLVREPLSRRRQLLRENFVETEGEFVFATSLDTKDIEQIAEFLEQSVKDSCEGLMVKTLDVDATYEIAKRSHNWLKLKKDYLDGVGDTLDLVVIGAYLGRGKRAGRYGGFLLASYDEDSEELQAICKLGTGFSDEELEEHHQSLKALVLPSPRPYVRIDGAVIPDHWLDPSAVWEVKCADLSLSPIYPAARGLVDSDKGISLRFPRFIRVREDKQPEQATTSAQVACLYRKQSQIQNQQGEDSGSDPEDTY
UniProt Q2NKJ3: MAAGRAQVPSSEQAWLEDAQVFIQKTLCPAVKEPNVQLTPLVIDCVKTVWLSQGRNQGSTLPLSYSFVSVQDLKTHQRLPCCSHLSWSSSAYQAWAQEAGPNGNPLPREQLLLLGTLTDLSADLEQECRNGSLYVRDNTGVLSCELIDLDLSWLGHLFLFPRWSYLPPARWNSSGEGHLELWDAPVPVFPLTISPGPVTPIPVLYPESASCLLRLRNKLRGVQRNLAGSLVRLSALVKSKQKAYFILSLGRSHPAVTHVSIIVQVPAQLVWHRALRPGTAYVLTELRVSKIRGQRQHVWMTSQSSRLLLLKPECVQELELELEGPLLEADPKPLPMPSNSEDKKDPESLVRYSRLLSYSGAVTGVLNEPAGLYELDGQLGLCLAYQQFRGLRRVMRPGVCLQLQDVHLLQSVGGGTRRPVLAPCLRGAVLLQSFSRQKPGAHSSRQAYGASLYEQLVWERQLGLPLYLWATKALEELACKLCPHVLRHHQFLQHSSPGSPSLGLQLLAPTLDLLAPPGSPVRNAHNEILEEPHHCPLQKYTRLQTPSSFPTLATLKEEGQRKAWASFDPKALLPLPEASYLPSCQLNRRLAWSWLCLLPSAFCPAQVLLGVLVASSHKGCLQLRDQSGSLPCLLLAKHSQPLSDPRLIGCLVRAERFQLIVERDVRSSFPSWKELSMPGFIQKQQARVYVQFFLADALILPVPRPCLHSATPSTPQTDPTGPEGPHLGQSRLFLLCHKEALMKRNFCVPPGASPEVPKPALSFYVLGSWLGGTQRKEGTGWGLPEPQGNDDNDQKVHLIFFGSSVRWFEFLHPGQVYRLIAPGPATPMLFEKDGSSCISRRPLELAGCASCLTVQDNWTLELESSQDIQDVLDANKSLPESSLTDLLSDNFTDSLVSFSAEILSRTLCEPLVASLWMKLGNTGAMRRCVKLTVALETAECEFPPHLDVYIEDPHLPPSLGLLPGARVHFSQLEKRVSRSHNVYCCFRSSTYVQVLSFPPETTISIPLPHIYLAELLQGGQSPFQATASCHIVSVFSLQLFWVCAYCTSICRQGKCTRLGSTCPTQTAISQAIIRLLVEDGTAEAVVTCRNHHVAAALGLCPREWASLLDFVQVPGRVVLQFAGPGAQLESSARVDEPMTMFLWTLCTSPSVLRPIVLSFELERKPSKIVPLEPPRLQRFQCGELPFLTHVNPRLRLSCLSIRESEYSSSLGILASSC
UniProt Q9H668: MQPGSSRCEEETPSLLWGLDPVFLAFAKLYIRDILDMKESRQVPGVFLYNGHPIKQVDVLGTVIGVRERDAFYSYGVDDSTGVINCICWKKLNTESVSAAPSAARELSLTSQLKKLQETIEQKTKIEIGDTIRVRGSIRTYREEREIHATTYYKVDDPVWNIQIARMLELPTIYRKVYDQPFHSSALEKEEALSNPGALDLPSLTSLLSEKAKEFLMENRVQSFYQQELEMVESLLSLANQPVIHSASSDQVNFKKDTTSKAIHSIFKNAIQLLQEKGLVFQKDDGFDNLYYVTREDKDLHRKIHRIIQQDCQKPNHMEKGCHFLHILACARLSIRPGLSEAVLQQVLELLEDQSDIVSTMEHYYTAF
UniProt Q86WV5: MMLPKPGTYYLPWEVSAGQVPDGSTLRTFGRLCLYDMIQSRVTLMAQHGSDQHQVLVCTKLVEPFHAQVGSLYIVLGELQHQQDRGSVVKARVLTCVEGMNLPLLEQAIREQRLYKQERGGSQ

What was measured:
[1] = molecular target: Flap endonuclease 1 (FEN1), endogenous (human (endogenous in HEK293T)) (UniProt P39748); experiment: co-IP; HEK293T cells overexpressing one CST subunit (Flag-CTC1, Myc-STN1 or Flag-TEN1) for 24 h, untreated or 200 μM H2O2 for 2 h; RIPA lysates treated with benzonase; endogenous BER protein immunoprecipitated (Dynabeads protein G), blot with anti-FLAG or anti-Myc
[2] = molecular target: AP endonuclease 1 (APE1), endogenous (human (endogenous in HEK293T)) (UniProt P27695); experiment: as above
[3] = molecular target: 8-oxo-guanine glycosylase (OGG1), endogenous (human (endogenous in HeLa and HEK293T)) (UniProt O15527); experiment: as above
[4] = molecular target: DNA ligase I (LigI), endogenous (human (endogenous in HEK293T)) (UniProt P18858); experiment: as above
[5] = molecular target: Human CST complex (CTC1-STN1-TEN1) (human) (UniProt Q2NKJ3+Q9H668+Q86WV5); experiment: pull-down; CST complex incubated with one His-tagged BER protein in a 1:1 ratio for 2 h, then on Flag beads for 4 h to pull down Flag-CTC1; input, flowthrough and eluate probed with anti-His; both purified

binding [1] | binding [2] | binding [3] | binding [4] | binding [5] | Substance
binds | binds | binds weakly | binds weakly |  | FLAG-CTC1 (from UniProt Q2NKJ3 1-1217)
no binding | no binding | no binding | binds |  | FLAG-TEN1 (from UniProt Q86WV5 1-123)
binds | binds | binds |  |  | Myc-STN1 (from UniProt Q9H668 1-368)
 |  |  |  | binds | Recombinant human LIG1 (6X-His tagged) (from UniProt P18858 1-919) (enzyme)
 |  |  |  | binds | Recombinant human OGG1 (6X-His tagged) (from UniProt O15527 1-345) (enzyme)
